In paper PMC6919601, “Identification of Plasmodium dipeptidyl aminopeptidase allosteric inhibitors by high throughput screening” (PLoS ONE, 2019):
About 230 (0.21%) of roughly 110,000 compounds showed an effect of 50% or more. Some of the results follow.

molecular target: DPAP1 (Plasmodium falciparum, UniProt Q8IIJ9); experiment: primary screen, percent inhibition; read by cleavage of a fluorogenic dipeptide substrate; higher = more effect of the substance; design: species or system P. falciparum D10 trophozoite lysates; single well
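Note: 30 min substrate incubation versus DMSO and 10 µM JCP410 controls.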

Sequence of DPAP1 (Q8IIJ9 whole entry, looked up): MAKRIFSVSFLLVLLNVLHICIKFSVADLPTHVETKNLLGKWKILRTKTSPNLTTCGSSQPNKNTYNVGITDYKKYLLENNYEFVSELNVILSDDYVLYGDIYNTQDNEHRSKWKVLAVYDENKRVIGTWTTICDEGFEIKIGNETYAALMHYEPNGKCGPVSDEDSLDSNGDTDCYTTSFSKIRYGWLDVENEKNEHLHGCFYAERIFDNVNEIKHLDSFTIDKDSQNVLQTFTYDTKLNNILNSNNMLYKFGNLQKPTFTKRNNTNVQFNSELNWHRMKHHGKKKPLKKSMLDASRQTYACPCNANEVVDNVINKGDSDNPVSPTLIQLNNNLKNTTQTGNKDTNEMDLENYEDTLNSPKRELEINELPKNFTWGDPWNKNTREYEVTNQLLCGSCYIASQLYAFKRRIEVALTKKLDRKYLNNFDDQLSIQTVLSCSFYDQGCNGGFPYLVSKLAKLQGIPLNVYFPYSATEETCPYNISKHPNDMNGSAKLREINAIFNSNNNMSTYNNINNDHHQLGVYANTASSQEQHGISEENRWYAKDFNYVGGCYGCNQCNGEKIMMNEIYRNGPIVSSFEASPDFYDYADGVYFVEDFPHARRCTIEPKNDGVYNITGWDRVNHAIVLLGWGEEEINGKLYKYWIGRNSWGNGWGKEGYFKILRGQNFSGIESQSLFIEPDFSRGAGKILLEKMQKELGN

Row | Structure (SMILES) | % Inhibition @ 10 uM [%]
1 | CCN(CC)C(=O)C1CCCN(Cc2ccc(F)c(F)c2)C1 (stereo not shown) | -1.77
2 | CCOc1ccc(N(C(C)C(=O)NC2CCCC2)S(C)(=O)=O)cc1 (stereo not shown) | -1.38
3 | COc1ccc(OC)c(-c2[nH]c3c(C#N)cnn3c2NC2CCC(C)CC2)c1 (stereo not shown) | 0.596
4 | COc1cc(CNCCSc2nnnn2C)ccc1OCc1ccc(Cl)nc1 | -3.49
5 | Cc1onc(-c2ccccc2)c1C(=O)N1CCC(C)CC1 | -1.79
6 | OC12C3CCCC14CCCC2(CCC3)O4 (stereo not shown) | -4.67
7 | CSc1ccc(CN2CCN(c3cccc(C(F)(F)F)c3)CC2)cc1 | -1.86
8 | CN(C)CCCN(CCCN(C)C)CC1=CC[C@H]2C[C@@H]1C2(C)C | -0.0494
9 | Cc1nnc(SCc2cccs2)nc1O | -1.43
10 | CCOc1ccc(C(=O)Nc2ccc(-c3nc4ncccc4o3)cc2)cc1Cl | -4.82
11 | O=C(Nc1ccc(Cc2ccc(NC(=O)c3cccs3)cc2)cc1)c1cccs1 | 2.4
12 | O=C(CCc1nnc2n(Cc3ccccc3)c(=O)c3ccccc3n12)NCCc1ccccc1 | -0.692
13 | Cc1ccc2c(=O)c(C(=O)c3cccc(Cl)c3)cn(CC(=O)NC(C)C)c2n1 | 1.68
14 | COc1cc(OC)cc(C(=O)Nc2ccc(Br)cc2C(F)(F)F)c1 | -8.76
15 | C=CCn1c(SCc2ccccc2)nc(O)cc1=O | 1.38
16 | O=C(NCCCN1CCOCC1)c1cc(-c2ccccc2)c(N2CCCCC2)s1 | -6.64
17 | Cc1cc(C(=O)N2CCOCC2)n(-c2ccccc2)n1 | 3.19
18 | CCCN1CCC(N2CCC(C)CC2)CC1 | -3.74
19 | CC1CCCCN1C(=O)NCc1noc2ccccc12 (stereo not shown) | 0.0244
20 | O=C(c1cc2ccccc2oc1=O)n1nnc2ccccc21 | -9.83
21 | CCOC(=O)c1c(C)n(OCc2ccccc2)c2ccc3nonc3c12 | 1.16
22 | Cc1nn(C)c(C)c1NC(=O)c1ccc(Cl)cc1 | -0.85
23 | COc1cc(-c2nnc3n(Cc4ccccc4)c(=O)c4ccccc4n23)cc(OC)c1O | -1.94
24 | O=C(O)COc1ccc(/C=C/c2nc3n(n2)C=COc2ccccc2-3)cc1 | 5.88
25 | Cc1ccc(OCC(=O)Nc2sc3c(c2C#N)CCC3)cc1C | -0.996

Row | Structure (SMILES) | % Inhibition @ 10 uM [%]
26 | O=C(c1ccc(-c2ccccc2)cc1)N1CCN(Cc2ccc(Cl)cc2)CC1 | -11.3
27 | O=C(/C=C/c1ccccc1)OCCNC1=NS(=O)(=O)c2ccccc21 | 2.03
28 | CC1(C)CC(=O)C(/C=N/c2ccc(N)cc2)=C(O)C1 | -7.02
29 | CCOc1cc(-c2c(C)c(C)nc(N)c2C#N)ccc1O | -1.79
30 | O=C(O)CCC(=O)Nc1ccc(C(=O)c2ccccc2)cc1 | 2.69
31 | Cc1cc(/N=C/c2nc(-c3ccc(Br)cc3)oc2O)no1 | 9.09
32 | Cn1c(C(=O)O)c(CNC2CCCCCC2)c2ccccc21 | 0.277
33 | Cc1ccc(-n2nc3c(=O)n(CCCC(=O)NCCC4=CCCCC4)nc(C)c3c2C)cc1 | -0.128
34 | CCN1CCC(NC(c2ccccc2)c2ccc(Cl)cc2)CC1 (stereo not shown) | 1.57
35 | COc1ccc(Br)cc1/C=C1\N=C(c2cccc(C)c2OC)OC1=O | -1.29
36 | CC(C)(C)NS(=O)(=O)c1ccc(NC(=O)c2ccc(C(C)(C)C)cc2)cc1 | -5.91
37 | N#CC1=C(N)OC2=C(C(=O)CC(c3ccccc3)C2)C1c1ccco1 (stereo not shown) | -1.98
38 | Cc1cccc2sc(N(CCN(C)C)C(=O)c3ccc4ncsc4c3)nc12 | -1.14
39 | O=[N+]([O-])c1ccc2nc3c4ccccc4n(CCCCN4CCOCC4)c3cc2c1 | 6.48
40 | Cn1c(SCc2nc(-c3ccc(Br)cc3)no2)nnc1C1CCCCC1 | 0.415
41 | Cc1cc(C)c(S(=O)(=O)N2CCN(C)CC2)c(C)c1 | 0.526
42 | CCOc1ccc(N(C(C)C(=O)Nc2ccc(NC(C)=O)cc2)S(C)(=O)=O)cc1 (stereo not shown) | 13.4
43 | Nc1cc(O)nc(SCc2nc(-c3cccs3)no2)n1 | -4.78
44 | Cc1ccc(-c2noc(CCC(=O)Nc3ccc(C)cn3)n2)cc1 | 2.42
45 | CC(C)Cc1cc(C(=O)N2CCN(Cc3noc(CCC(=O)N(C)Cc4ccccc4)n3)CC2)no1 | 4.94
46 | CCOc1ccc2ncc(S(=O)(=O)c3ccccc3)c(N3CCC4(CC3)OCCO4)c2c1 | -3.5
47 | CCOc1ccc(C2=CC(C(C(C)=O)C(C)=O)c3ccccc3O2)cc1 (stereo not shown) | -5.2
48 | COc1ccc(NC2CC3CCC2C3)cc1OC (stereo not shown) | -3.6
49 | COc1ccc(CN2CCN(C(=O)c3ccco3)CC2)c(OC)c1 | 3.95
50 | COc1cc(C2C(C#N)=C(N)OC3=C2C(=O)CCC3)ccc1OCc1cccc(F)c1 (stereo not shown) | -11.5

Row | Structure (SMILES) | % Inhibition @ 10 uM [%]
51 | COc1ccc(-c2c3c(=O)n(C)c(=O)n(C)c3cn2-c2ccccc2O)cc1 | 4.54
52 | O=C1NC(c2ccc(Br)cc2)=N/C1=C/c1ccccc1 | -0.591
53 | CC(C)C[C@H](NC(=O)c1ccc2c(c1)CCC2C)C(=O)NCC#N (stereo partly shown) | -3.69
54 | O=C(N/C(=C\c1ccco1)C(=O)N1CCOCC1)c1ccccc1Cl | 20.2
55 | CCN(CC)C(=O)C1CCCN(Cc2ccc(O)cc2)C1 (stereo not shown) | 4.66
56 | CCS(=O)(=O)N1CCC(C(=O)N2CCc3ccccc3C2)CC1 | 2.18
57 | NS(=O)(=O)c1ccc(NC(=O)CNS(=O)(=O)c2cc(Cl)ccc2Cl)cc1 | -0.473
58 | OCC1CCCN(Cc2ccc(Br)cc2)C1 (stereo not shown) | 2.46
59 | COc1ccc(-c2cc(C(F)(F)F)c3c(N)c(C(=O)NC4CC4)sc3n2)cc1OC | 24.4
60 | CC(C)C[C@H](NC(=O)OCc1ccccc1)C(=O)N[C@@H](CC(C)C)C(=O)c1nc2ccccc2o1 | -3.04
61 | Cc1ccc2c(c1)-c1cc(C)nn1C(c1ccc3c(c1)OCO3)N2 (stereo not shown) | 2.49
62 | CCCCOc1ccc(C2c3c(oc4ccccc4c3=O)C(=O)N2c2nncs2)cc1 (stereo not shown) | 0.415
63 | O=[N+]([O-])c1cc(C(F)(F)F)ccc1-n1ccnc1 | 3.25
64 | COc1ccc(CNc2nc3c(S(=O)(=O)c4ccc(C)c(C)c4)nnn3c3ccsc23)cc1 | -4.34
65 | CCOC(=O)N1CCN(Cc2nc3c(c(=O)[nH]c(=O)n3C)n2CCN2CCOCC2)CC1 | 3.59
66 | O=C(c1ccc(N2C(=O)CCC2=O)cc1)N1CCCCCC1 | -0.891
67 | Cc1[nH]cnc1CSCCCCCc1ccccc1 | -4.12
68 | Cc1ccc(C=C2C(=O)OC(C)(C(C)(C)C)OC2=O)cc1 (stereo not shown) | -9.24
69 | CC1(C)OC(=O)C(/C=N/C(Cc2c[nH]c3ccccc23)C(=O)O)=C(O)O1 (stereo not shown) | 3.66
70 | Fc1ccccc1N1CCN(Cc2c(F)cccc2F)CC1 | -0.446
71 | O=C(O)CSc1cccc2cccnc12 | 1.96
72 | Cc1cccn2c(=O)c3cc(C(=O)NCc4ccccc4)n(C)c3nc12 | 1.08
73 | O=C(NCc1cccnc1)c1ccc(F)cc1 | 1.91
74 | CCc1cc2c(s1)SC(c1ccc([N+](=O)[O-])cc1)NC2=O (stereo not shown) | -2.51
75 | CCOc1cc(C)c(S(=O)(=O)Nc2ccccn2)cc1C | 4.94

Row | Structure (SMILES) | % Inhibition @ 10 uM [%]
76 | N#CCc1ccc(NC(=O)Cc2ccccc2)cc1 | 3.21
77 | CS(=O)(=O)C1=NSC2=NC(=O)/C(=C\c3ccc(O)cc3)C(=N)N21 | -1.58
78 | COc1cccc(CNCc2ccc(Br)cc2)c1OC | -2.22
79 | COc1cnn(-c2ccccc2)c(=O)c1O | 2.22
80 | O=C(c1nc2ccccc2o1)C(CCc1ccccc1)NC(=O)C(CC1CCCCC1)C(=O)NCc1ccccc1 (stereo not shown) | -0.214
81 | Fc1ccc2c(c1)C1C=CCC1C(c1ccncc1)N2 (stereo not shown) | -1.37
82 | N#C/C(=C\Nc1ccccc1-c1ccccc1)C(=O)NC(=O)Cc1ccccc1 | -2.45
83 | Cc1ccc(C(=O)Nc2c(C)cccc2C)s1 | -2.19
84 | COc1ccc(OCCCCCCS)cc1 | 3.83
85 | CCOc1ccc(/C=C2\CC/C(=C\C(C)C)C2=O)cc1 | 8.24
86 | O=C(Nc1ccc([N+](=O)[O-])cc1)c1cccc(S(=O)(=O)N2CCCCC2)c1 | 6.33
87 | N#CC1=C(N)OC2=C(C(=O)c3ccccc3C2=O)C1c1cccnc1 (stereo not shown) | 4.51
88 | Cc1ccc(NC(=O)c2ccc3nc4ccccc4nc3c2)cc1 | -3.77
89 | O=c1oc2c3c(c(Cl)cc2c2c1CCC2)OCN(Cc1ccc2c(c1)OCO2)C3 | -4.39
90 | O=C(Nc1cccnc1)C1CCN(S(=O)(=O)c2cccc3cccnc23)CC1 | -1.76
91 | Cc1ccc(NC(=O)c2ccc(Cn3cc(Cl)cn3)o2)c(C)c1 | -4.4
92 | COc1ccc2c(c1)cc1c(=O)n(CC(=O)NCc3cccc(OC)c3OC)nc(C)n12 | 99.1
93 | S=C(Nc1ccccc1)N1CCCN1c1ccccc1 | -0.744
94 | CC(C)CC(NC(=O)c1cccc(N(C)C)c1)C(=O)NCC#N (stereo not shown) | -2.35
95 | Cc1ccc(C2C3=C(CC(c4ccco4)CC3=O)N=C3C2=C(O)c2ccccc23)cc1 (stereo not shown) | 5.3
96 | CC1(C)CC(=O)C2=C(C1)c1c(ccc3ccccc13)NC2c1c(F)cccc1Cl (stereo not shown) | -4.24
97 | Cc1ccccc1N1C(=O)C(Cl)=C(N(C)c2ccccc2)C1=O | -2.88
98 | CCN(CC)c1ccc(CN2CCCC(C(N)=O)C2)cc1 (stereo not shown) | -1.41
99 | O=C(/C=C\Nc1ccc2c(c1)OCO2)c1ccc2ccccc2c1 | -2.24
100 | CNC(=O)CNC(=O)C1O[C@@H]2OC(C)(C)O[C@@H]2[C@H]2OC(C)(C)O[C@@H]12 (stereo partly shown) | 0.273
